Test results: publication PMC6919601, “Identification of Plasmodium dipeptidyl aminopeptidase allosteric inhibitors by high throughput screening” (PLoS ONE, 2019)
Several values for one entry are separate records, joined by “and”; a condition that tells them apart may be missing. Equal entries are not always repeated. Hit rate of the full screen: of about 110,000 compounds, about 230 (0.21%) showed an effect of 50% or more. This is one part of the list.

target: DPAP1 (Plasmodium falciparum, UniProt Q8IIJ9); assay: primary screen, percent inhibition; read by cleavage of a fluorogenic dipeptide substrate; higher = more effect of the substance; set-up: species or system P. falciparum D10 trophozoite lysates; single well
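Note: 30 min substrate incubation versus DMSO and 10 µM JCP410 controls.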

Chain of DPAP1 (Q8IIJ9 whole entry, looked up): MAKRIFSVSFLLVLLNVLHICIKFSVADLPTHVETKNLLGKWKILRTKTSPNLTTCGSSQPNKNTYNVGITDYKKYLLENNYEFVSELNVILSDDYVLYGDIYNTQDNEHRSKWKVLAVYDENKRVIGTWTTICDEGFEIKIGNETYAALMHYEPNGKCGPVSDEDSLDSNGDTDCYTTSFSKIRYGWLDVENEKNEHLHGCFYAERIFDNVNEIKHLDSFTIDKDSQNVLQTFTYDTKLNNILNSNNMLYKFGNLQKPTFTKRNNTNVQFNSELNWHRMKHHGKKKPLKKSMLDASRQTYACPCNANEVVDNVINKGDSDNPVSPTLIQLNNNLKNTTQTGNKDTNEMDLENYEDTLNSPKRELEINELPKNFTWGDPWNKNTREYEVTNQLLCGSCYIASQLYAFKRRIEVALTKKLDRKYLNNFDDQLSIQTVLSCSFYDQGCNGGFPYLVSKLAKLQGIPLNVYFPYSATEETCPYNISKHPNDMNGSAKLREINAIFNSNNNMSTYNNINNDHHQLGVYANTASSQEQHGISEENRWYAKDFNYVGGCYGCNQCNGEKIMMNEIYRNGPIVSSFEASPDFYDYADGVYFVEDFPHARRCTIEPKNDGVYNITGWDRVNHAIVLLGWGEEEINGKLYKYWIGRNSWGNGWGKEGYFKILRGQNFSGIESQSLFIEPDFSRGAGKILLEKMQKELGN

| SMILES | % Inhibition @ 10 uM |
| --- | --- |
| CC1(C)CC(=O)C2=C(C1)N1C(=C(C#N)C2c2cccnc2)NC(=O)c2c1sc1c2CCCC1 (stereo not drawn) | -4.12% |
| Cc1cc(C)nc(NC(=O)NS(=O)(=O)N2CCCCCC2)n1 | -9.91% |
| O=C(Cc1c(O)nc2ccccc2c1O)NCc1ccncc1 | 0.219% |
| O=C(O)c1ccccc1C(=O)NCc1ccccc1 | 3.06% |
| COc1ccc(C(=O)N2CCN(C(=O)c3ccc(OC)c(OC)c3)CC2)cc1OC | -4.86% |
| COc1ccc(OC)c(S(=O)(=O)n2nc(-c3ccc(Cl)cc3)cc2N)c1 | -1.08% |
| CC(C)c1ccc(-c2c(N3CCN(c4ccccn4)CC3)c(=O)c2=O)cc1 | -2.28% |
| O=C(COCc1cc(-c2ccco2)on1)NCCN1CCOCC1 | 3.87% |
| CCOC(=O)C1C(=O)C=C(N2CCOCC2)CC1c1ccccc1 (stereo not drawn) | -1.15% |
| Cc1ccc(NC(=O)Nc2ccc(Cl)cc2)cc1F | 1.13% |
| CCOc1ccc(C(CC(=O)O)NC(=O)c2ccco2)cc1 (stereo not drawn) | 6.51% |
| Cc1cccc2c1nc1s/c(=C/c3c[nH]nc3-c3ccccc3)c(=O)n12 | 17.9% |
| CC(=O)Nc1ccc(-c2cc(-c3ccc(NC(C)=O)cc3)ncn2)cc1 | 0.937% |
| NC(=O)CSc1nc2nccnc2c(=O)n1Cc1ccccc1Cl | -8% |
| C=CCN1C(=O)C2(C(C#N)=C(N)OC3=C2C(=O)CC(C)(C)C3)c2ccccc21 (stereo not drawn) | -4.41% |
| Cc1ccc(NC(=O)c2ccc(CSc3ncnc4[nH]cnc34)cc2)c(C)c1 | 0.843% |
| COc1ccc(C(=O)Nc2ccc3c4c(cccc24)CC3)cc1 | 2.22% |
| Cc1ccc(S(=O)(=O)c2nnn3c2nc(NCCc2c[nH]c4ccccc24)c2ccccc23)cc1 | -1.37% |
| COc1ccc(C(=O)Nc2ccc(C)cc2)cc1 | -8.49% |
| COc1ccc(/C=C/c2nc3ccccc3c3ccccc23)cc1 | -1.05% |
| CCCc1cc(O)nc(SCc2cccc(C)c2)n1 | -6.69% |

| SMILES | % Inhibition @ 10 uM |
| --- | --- |
| CCOc1ccc(C(C)NC(=O)Cc2ccccc2)cc1OCC (stereo not drawn) | -1.5% |
| CN(C)c1ccc(Nc2nc(-c3ccncc3)cs2)cc1 | -2.48% |
| COc1cc(/C=c2\sc3nc(-c4ccncc4)nn3c2=O)ccc1OCCC(C)C | 0.487% |
| O=C(O)c1cccc(NC(=O)c2cccc(S(=O)(=O)Nc3ccc(Cl)cc3)c2)c1 | -1.96% |
| CC(C)(C)NS(=O)(=O)c1ccc(NC(=O)COc2ccccc2Cl)cc1 | 2.95% |
| O=C(CSc1nnnn1Cc1ccccc1)NCc1cc(C(=O)c2ccccc2)ccc1O | -1.85% |
| Cc1cc2c(c(S)n1)C(=O)O/C2=C\c1c[nH]nc1-c1ccc(F)cc1 | 26% |
| CCN1CCN(CC(O)COc2ccccc2C(C)(C)C)CC1 (stereo not drawn) | 2.65% |
| COc1ccc(C(=O)N/C(=C\c2cccc3ccccc23)C(=O)Nc2ccccc2OC)cc1 | -4.76% |
| COc1ccc(C(=O)Nc2ccc(S(=O)(=O)N3CCc4ccccc43)cc2)cc1 | -1.04% |
| O=S(=O)(c1ccc(-c2ccc(O)nn2)s1)N1CCN(C2CCCCC2)CC1 | 3.43% |
| Cc1cccc(C2C=C(c3ccc(Br)s3)Nc3ncnn32)c1 (stereo not drawn) | -0.125% |
| CN1CCN(c2ccc(NC(=O)CC34CC5CC(CC(C5)C3)C4)cc2)CC1 | 2.01% |
| O=C1CC(Sc2ccccn2)C(=O)N1c1ccc(F)cc1F (stereo not drawn) | 2.38% |
| COc1ccc(S(=O)(=O)NCCc2nnc3ccc(SCc4cc(C)ccc4C)nn23)cc1 | 3.8% |
| CCCCCOc1ccc(C2c3c(-c4ccccc4O)n[nH]c3C(=O)N2CCOC)cc1OC (stereo not drawn) | 3.62% |
| C/N=C1\S/C(=C\c2cc(OC)c(N3CCCC3)cc2OC)C(=O)N1C | -11.7% |
| CCN(CC)CCCCOc1ccccc1 | 5.85% |
| CC1C(c2ccccc2)NC(c2ccccc2)CC1(O)c1ccc(F)cc1 (stereo not drawn) | -0.13% |
| COc1ccccc1C1C(C(C)=O)=C(O)C(=O)N1c1nc2ccccc2s1 (stereo not drawn) | -1.93% |
| C/C=C/Cn1c(N2CCCCC2)nc2c1c(=O)[nH]c(=O)n2C | -9.24% |

| SMILES | % Inhibition @ 10 uM |
| --- | --- |
| Sc1nnc(-c2cccs2)n1Cc1ccc2c(c1)OCO2 | 1.96% |
| COc1ccc(Br)cc1C(=O)Nc1cc(Cl)ccc1C(=O)O | -3.45% |
| CC1(C)CC(=O)C(/C=N/CCCN2CCCC2=O)=C(O)C1 | -6.69% and 2.01% |
| O=C(NCCN1CCOCC1)c1ccc(-n2c(-c3ccccc3)cc3c2CCCC3)cc1 | -2.58% |
| O=C(O)C1C2CCC(C2)C1C(=O)Nc1ccc(Oc2ccc(Cl)cc2)cc1 (stereo not drawn) | -4.39% |
| CN1CCN(Cc2ccc(F)c(F)c2)CC1 | 1.63% |
| NC1CCCc2c1[nH]c1ccc(Br)cc21 (stereo not drawn) | -5.61% |
| COCCNC(=O)C1CCN(c2ncnc3c2sc2cccc(F)c23)CC1 | 0.828% |
| CC(=O)NC1(c2ccccc2)CCN(C)C(c2ccccc2)C1C (stereo not drawn) | -4.35% |
| CSc1ncc(C(=O)NCCCc2ccccc2)c(-c2ccccc2)n1 | 6.46% |
| Cc1ccc(-c2cc(-c3ccccc3)nc(-n3nc(C)cc3C)n2)cc1 | 4.63% |
| O=C1CC(N2CCN(S(=O)(=O)c3ccccc3)CC2)C(=O)N1c1ccccc1 (stereo not drawn) | -0.988% |
| O=C(Cc1nnc(-c2ccc(Br)cc2)o1)NCCc1c[nH]c2ccccc12 | -3.57% |
| NS(=O)(=O)c1ccc(NC(=O)COc2ccc(Cl)cc2Br)cc1 | -1.89% |
| CCC(C)NC(=O)c1cc2c(O)nc3ccc(C)cc3c2s1 (stereo not drawn) | 7.39% |
| Cc1ccsc1CN(C(=O)COc1ccc(C(C)C)cc1)C1CCS(=O)(=O)C1 (stereo not drawn) | 2.19% |
| CCOC(=O)c1c(NC(=O)c2nc3ncccn3n2)sc2c1CCC(CC)C2 (stereo not drawn) | 3.35% |
| COc1cccc(CNCc2ccc(C(=O)O)s2)c1OC | 4.79% |
| CSc1cccc(-c2cccc(C(=O)N[C@@H](CC(C)C)C(=O)NCC#N)c2)c1 | -0.207% |
| O=c1c(-c2ccccc2)c(N2CC3CC(C2)c2cccc(=O)n2C3)c1=O (stereo not drawn) | -1.11% |
| Clc1ccc(C2CC(c3ccco3)n3ncnc3N2)cc1Cl (stereo not drawn) | -4.52% |
